± gives the uncertainty stated by the source. Whole data set: some 9,900 compounds, median “viability index relative to DMSO control” near 1, cut for the lowest 2% near 0.85. This is one part of the list.

This test relates to Plasmodium falciparum NF54 stage V gametocytes. As to the kind of experiment: viability index relative to DMSO control (fraction); higher = less gametocyte killing. The settings on record: 2.5 µM, incubation time: 72 h. The method in brief:
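Viability index is the count of red-stained particles in a well divided by the plate mean of solvent-only wells. Particles of 20–70 µm2 were counted in one imaged field per well after one to two hours with 3 µl of 2.5 µM MitoTracker Red CMXRos and 0.13% saponin. Before staining, P. falciparum NF54 stage V gametocytes in serum-free medium (0.75% gametocytemia, 1.25% hematocrit, 10 µl, 1,536-well plates) were kept with compound at 2.5 µM for 72 hr at 37°C under low oxygen.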

The mark [1] stands for this setting: library set: Broad Institute DOS.

Turning to `Cc1ccc(S(=O)(=O)N2C[C@H](O)COC[C@@H]3O[C@H](CC(=O)NCc4ccc5c(c4)OCO5)CC[C@H]32)cc1`, the viability index under setting [1] amounted to 1.01 ± 0.047.

Under setting [1], `CCCNC(=O)N1[C@@H](C#N)[C@@H](c2ccc(C#Cc3cccc(F)c3)cc2)[C@@H]1CO` registered a viability index of 1.05 ± 0.056.

Turning to `C[C@H]1CN([C@@H](C)CO)C(=O)c2cc(/C=C/c3ccccc3)cnc2O[C@@H]1CN(C)S(=O)(=O)c1ccccc1F`, the viability index under setting [1] stood at 1.03 ± 0.082.

For `COc1cccc(S(=O)(=O)N2CCCCN3[C@H](CO)[C@@H](c4ccc(C#CCC(C)C)cc4)[C@@H]3C2)c1`, the viability index under setting [1] is 0.941 ± 0.042.

Turning to `CO[C@@H]1CC[C@@H]2CCOc3ccc(C#N)cc3C(=O)N(C)C[C@@H](c3ccccc3)CC(=O)N(C)C[C@@H]1O2`, the viability index under setting [1] stood at 1.06 ± 0.015.

`COc1ccc2c3c([nH]c2c1)[C@H](CO)N(C[C@]31CN(C1)S(C)(=O)=O)C(=O)C1CCCCC1` gave a viability index under setting [1] of 1.09 ± 0.1.

Regarding `CCCNC(=O)N1CC(=O)N2[C@@H](CO)[C@H](c3ccc(C#CCC4CCCC4)cc3)[C@@H]2C1`, under setting [1], the viability index amounted to 1.02 ± 0.14.

The molecule `COc1ccccc1CNC(=O)C[C@@H]1C[C@H]2c3cc(NC(=O)C4CCC4)ccc3O[C@H]2[C@H](CO)O1` showed a viability index under setting [1] of 1.11 ± 0.17.

In the case of `CO[C@@H]1CN(C)C(=O)c2ccc(NC(=O)Nc3ccccc3F)cc2OC[C@@H](C)N(Cc2ccccc2F)C[C@H]1C`, the viability index (library set: Broad Institute Blood Stage) turned out to be 0.947 ± 0.014.

Turning to `COc1cccc(CNC(=O)C[C@H]2CC[C@@H]3[C@@H](COc4ccc(NS(=O)(=O)c5ccccc5F)cc4C(=O)N3C)O2)c1`, the viability index under setting [1] worked out at 0.931 ± 0.13.

As for `C[C@@H]1CN([C@@H](C)CO)C(=O)c2ccccc2-c2ccccc2CO[C@@H]1CN(C)Cc1cccc(C(=O)O)c1`, under setting [1], the viability index was determined as 0.974 ± 0.098.

`Cc1ccccc1-c1cnc2c(c1)C(=O)N([C@@H](C)CO)C[C@@H](C)[C@@H](CN(C)Cc1ccccc1F)O2` returned a viability index under setting [1] of 1.12 ± 0.051.

Under setting [1], `Cc1ccc(S(=O)(=O)Nc2ccc3c(c2)C(=O)N([C@@H](C)CO)C[C@@H](C)[C@H](CN(C)S(=O)(=O)c2cccs2)OCCCC[C@H](C)O3)cc1` came in with a viability index of 0.999 ± 0.098.

Take `COc1ccc(S(=O)(=O)N(C)C[C@@H]2Oc3ccc(NC(=O)Cc4cn(C)c5ccccc45)cc3C(=O)N([C@H](C)CO)C[C@@H]2C)cc1`: the viability index under setting [1] turned out to be 0.964 ± 0.098.

Regarding `O=C(NCc1cc(F)cc(F)c1)[C@H]1[C@H](CO)[C@H]2Cn3c(cccc3=O)[C@@H]1N2C(=O)c1cnccn1`, under setting [1], the viability index was 1.01 ± 0.061.

For the molecule `CO[C@@H]1CN(C)C(=O)c2ccc(NC(C)=O)cc2OC[C@@H](C)N(Cc2cccc(F)c2)C[C@H]1C`, the viability index under setting [1] is 1.07 ± 0.021.

`Cc1noc(C)c1NC(=O)Nc1ccc2c(c1)C(=O)N([C@H](C)CO)C[C@@H](C)[C@@H](CN(C)Cc1ccc3c(c1)OCO3)OCCCC[C@@H](C)O2` displayed a viability index under setting [1] of 1.12 ± 0.057.

`C[C@@H]1C/C=C/C[C@H](c2ccc(F)cc2)NC(=O)[C@@H](Cc2ccccc2)N(C)C(=O)c2ccccc2O1.C[C@@H]1C/C=C\C[C@H](c2ccc(F)cc2)NC(=O)[C@@H](Cc2ccccc2)N(C)C(=O)c2ccccc2O1`: the viability index under setting [1] came to 0.968 ± 0.02.

In the case of `N#C[C@@H]1[C@@H](c2ccccc2C2=CCCC2)[C@H](CO)N1C(=O)Cc1ccncc1`, under setting [1], the viability index stood at 1.1 ± 0.067.

On to `O=C(Nc1ccc(F)cc1)N1CC(=O)N2[C@H](CO)[C@H](c3ccc(-c4cccc(F)c4)cc3)[C@@H]2C1`, for which, under setting [1], the viability index came out at 0.97 ± 0.035.

Molecule `COc1ccc2c3c([nH]c2c1)[C@H](CO)N(C)C[C@]31CCN(CC1)S(=O)(=O)c1cn(C)cn1` showed a viability index under setting [1] of 0.892 ± 0.039.

For `CCCNC(=O)N1CC(=O)N2[C@H](CO)[C@@H](c3ccc(C#CCC4CCCC4)cc3)[C@@H]2C1`, under setting [1], the viability index turned out to be 0.997 ± 0.11.

On to `N#Cc1ccc(-c2ccc([C@@H]3[C@@H]4CN(C(=O)C5CCCCC5)C[C@H]3N4)cc2)cc1`, for which the viability index under setting [1] was 0.948 ± 0.055.

Regarding `CCCNC(=O)[C@@H]1[C@@H](CO)[C@@H]2Cn3c(ccc(C4=CCCCC4)c3=O)[C@@H]2N1Cc1ccccc1F`, under setting [1], the viability index is 1.0042 ± 0.00092.

Take `CN1C(=O)c2cc(NC(=O)C3CCOCC3)ccc2OC[C@H]2O[C@@H](CC(=O)NCC3CCCCC3)CC[C@H]21`: under setting [1], the viability index stood at 1.1 ± 0.064.

For the molecule `CCCNC(=O)C[C@H]1CC[C@H]2[C@@H](COC[C@@H](O)CN2Cc2ccncc2)O1`, the viability index under setting [1] came out at 1.11 ± 0.015.

Consider `O=C(C[C@@H]1C[C@@H]2c3cc(NC(=O)c4ccc5c(c4)OCO5)ccc3O[C@@H]2[C@@H](CO)O1)NCc1ccc(Oc2ccccc2)cc1`, for which the viability index under setting [1] stood at 0.981 ± 0.069.

For the molecule `Cc1noc(C)c1NC(=O)N(C)C[C@@H]1OCCCC[C@@H](C)Oc2ccc(NC(=O)Nc3ccc(C(F)(F)F)cc3)cc2C(=O)N([C@H](C)CO)C[C@H]1C`, under setting [1], the viability index was 1.08 ± 0.073.

As to `O=C(C[C@@H]1C[C@H]2c3cc(NC(=O)Nc4ccccc4)ccc3O[C@H]2[C@@H](CO)O1)NCc1ccccc1`, the viability index under setting [1] worked out at 1.07 ± 0.064.

`CCCNC(=O)Nc1ccc2c(c1)OC[C@H](C)N(Cc1cncnc1)C[C@@H](C)[C@@H](OC)CN(C)C2=O`: the viability index under setting [1] was 1.02 ± 0.021.

The molecule `NCC[C@H]1CC[C@@H](NS(=O)(=O)c2ccc(Cl)cc2)[C@H](CO)O1` gave a viability index under setting [1] of 1.07 ± 0.15.

On to `O=S(=O)(c1ccccc1)N1CCCCN2[C@@H](CO)[C@@H](c3ccc(C#CC4CCCC4)cc3)[C@@H]2C1`, for which, under setting [1], the viability index was 0.8429 ± 0.006.

`Cc1ccc(S(=O)(=O)Nc2ccc3c(c2)C(=O)N([C@H](C)CO)C[C@@H](C)[C@H](CN(C)S(=O)(=O)c2cccs2)OCCCC[C@H](C)O3)cc1` showed a viability index under setting [1] of 1.04 ± 0.077.

For `CC(C)C(=O)Nc1ccc2c(c1)C(=O)N(C)[C@H]1CC[C@@H](CC(=O)NCCc3ccccc3)O[C@H]1CO2`, the viability index under setting [1] was 1.07 ± 0.063.

Consider `Cc1ccc(S(=O)(=O)Nc2ccc3c(c2)C(=O)N(C)[C@H]2CC[C@@H](CC(=O)NCCc4ccncc4)O[C@H]2CO3)cc1`, for which the viability index under setting [1] was found to be 0.918 ± 0.048.

On to `COc1ccc2c3c([C@@H](CO)N(C[C@]33CCN(C)CC3)S(=O)(=O)c3cn(C)cn3)n(C)c2c1`, for which the viability index under setting [1] turned out to be 1.1 ± 0.066.

`COc1ccc(S(=O)(=O)Nc2ccc3c(c2)C(=O)N([C@H](C)CO)C[C@@H](C)[C@H](CN(C)S(=O)(=O)c2ccc(Cl)cc2)OCCCC[C@H](C)O3)cc1` returned a viability index under setting [1] of 0.823 ± 0.033.

For `Cc1noc(C)c1S(=O)(=O)Nc1ccc2c(c1)C(=O)N([C@H](C)CO)C[C@H](C)[C@@H](CN(C)C(=O)NC1CCCCC1)O2`, the viability index under setting [1] came to 1.05 ± 0.14.

The molecule `O=C(Cc1cccnc1)N1CC2(C1)[C@H](c1ccccc1)[C@H](CO)N2C(=O)C1CCOCC1` returned a viability index under setting [1] of 1.156 ± 0.0057.

Under setting [1], `CN1C(=O)c2cc(NC(=O)c3cccc(Cl)c3)ccc2OC[C@@H]2O[C@@H](CC(=O)NC3CCCCC3)CC[C@@H]21` registered a viability index of 0.911 ± 0.075.

Under setting [1], `C[C@@H]1CN([C@@H](C)CO)C(=O)c2cccc(NC(=O)Nc3ccc(F)cc3)c2O[C@@H]1CN(C)S(=O)(=O)c1ccc(Cl)cc1` registered a viability index of 0.9877 ± 0.002.

Source of the values: the supplement of paper PMC4723716.
